# Assay results as given in PubChem BioAssay AID624296 (National Center for Advancing Translational Sciences (NCATS), 2012).
# In all, about 350,000 compounds went through this assay and about 9,900 (2.8%) were called active. Inconclusive results, whose numbers are uncertain, are shown with a selection of clear calls. The call rests on the fitted dose curve; in most records, active means well fitted activation curve with a large enough effect; inconclusive means small, poorly fitted or top-dose-only effect; inactive means no such curve, though single readings can be large or run the other way. Potencies of inconclusive entries are left out as doubtful fits.
# Test: A quantitative high throughput screen for small molecules that induce DNA re-replication in MCF 10a normal breast cells. Further: nearly all actives have a fitted effect of over 50% in size.
# Details: MCF 10A DNA re-replication, Hoechst nuclear intensity, 48 h; series mostly up to 46.1 µM
# Potency means the concentration at half of the fitted maximal effect; tags describe the fitted curve by direction and shape.
row,SMILES,Potency
1,CCC(=O)Nc1sc(Cc2ccc3c(c2)OCO3)c(C)c1C(N)=O,"inconclusive [activator, single point]"
2,COc1cc(OC)cc(-c2cc3nc(C)c(CCC(=O)NC(C)CCc4ccco4)c(C)n3n2)c1 (configuration not stated),"inconclusive [activator, partial curve, poor fit]"
3,CCOC(=O)N1CCN(C(=O)c2ccccc2N(Cc2ccccc2)S(=O)(=O)c2ccc(OC)cc2)CC1,active: 13 µM
4,Cc1cc(Cl)c(C(=O)Nc2cccc(C(F)(F)F)c2)c(C)n1,"inconclusive [activator, single point]"
5,CCOc1ccc2nc(NC(=O)CN3CCC(n4nnc5cc(F)ccc54)CC3)sc2c1,"inconclusive [activator, single point]"
6,O=C(CNc1ccc2ccccc2c1)N/N=C/c1ccc(OC(=O)/C=C/c2ccco2)cc1,"inconclusive [activator, single point]"
7,O=C(N/N=C/C1=Cc2ccccc2OC1)c1ccncc1,"inconclusive [activator, single point]"
8,NC(=S)N/N=C/c1ccccc1OCCSc1ccc(Cl)cc1,active: 20.6 µM
9,COc1ccc(C(=O)COC(=O)CCN2C(=O)C3CC=CCC3C2=O)c(OC)c1 (configuration not stated),"inconclusive [activator, single point]"
10,O=C(O)c1ccc2c(c1)C(=O)N(c1cccc(-c3nc4ccccc4s3)c1)C2=O,"inconclusive [activator, single point]"
11,CC(=O)c1cccc(NS(=O)(=O)c2ccc(N/C=C/C(=O)c3ccc(F)cc3)cc2)c1,"inconclusive [activator, single point]"
12,O=C(Nc1c(F)cccc1F)c1ccc(-n2cncn2)nc1,inactive
13,O=c1oc2cc(O)ccc2cc1-c1ccc(F)cc1,active: 14.6 µM
14,Cc1ccc2cc(C#N)c(NCCNC(=O)C3CC3)nc2c1C,"inconclusive [activator, single point]"
15,COc1ccc(S(=O)(=O)N2CCCCCC2)cc1NC(=O)c1c2c(nc3ccccc13)CCN(Cc1ccccc1)C2,"inconclusive [activator, partial curve]"
16,CSc1ncccc1C(=O)OCCCC(=O)c1ccc(F)cc1,"inconclusive [activator, single point]"
17,Cc1cccc(NC(=O)CSc2nnc(NC(=O)c3ccco3)s2)c1,"inconclusive [activator, single point]"
18,O=C(N/N=C/c1cccs1)c1n[nH]c2c1CCC2,active: 8.2 µM
19,O=S(=O)(Nc1ccc(-c2nc3cccnc3s2)cc1)c1cccs1,active: 6.51 µM
20,CCOC(=O)c1cnc2ccc(OC)cc2c1Nc1ccc2c(c1)OCCO2,inactive
21,O=C(Nc1nc(=O)c2ccccc2s1)c1ccc(Cl)cc1,inactive

row,SMILES,Potency
1,COc1ccc(-n2cc(CNCCc3nc(C)cc(C)n3)c(-c3ccccc3Cl)n2)cc1,"inconclusive [activator, single point]"
2,O=C(Nc1cccnc1)c1sc(Nc2ccccc2F)nc1-c1ccccc1,"inconclusive [activator, single point]"
3,CN1CCC(OC(=O)c2cc3cc(Cl)cc(Cl)c3oc2=O)CC1,"inconclusive [activator, single point]"
4,CCOC(=O)C1=CN(Cc2cccc(Br)c2)S(=O)(=O)N(CC)C1C (configuration not stated),"inconclusive [activator, full curve, poor fit]"
5,O=C(Nc1cccc(S(=O)(=O)NC2=NCCC2)c1)c1c(F)cccc1Cl,inactive
6,Cc1csc(=O)n1CC(=O)OCC(=O)c1c(N)n(CC(C)C)c(=O)n(C)c1=O,"inconclusive [activator, single point]"
7,Cc1ccc2c(c1)[nH]c1c(=O)n(Cc3ccco3)cnc12,"inconclusive [activator, single point]"
8,N/C(=N\OC(=O)Nc1ccccc1)c1ncc([N+](=O)[O-])s1,"inconclusive [activator, single point]"
9,CCc1cc(=O)oc2c(C)c(OC(C)C(=O)N3CC[C@@]4(O)CCCC[C@H]4C3)ccc12 (some centres not stated),"inconclusive [activator, full curve, poor fit]"
10,O=C1C(=Cc2ccco2)CCC1=Cc1ccco1,"inconclusive [activator, single point]"
11,CC(=O)Nc1ccc(S(=O)(=O)Nc2cccc(-c3nc4ccccc4o3)c2)cc1,"inconclusive [activator, single point]"
12,Cn1c(=O)c2[nH]c(N/N=C(/C#N)C(N)=O)nc2n(C)c1=O,"inconclusive [activator, full curve, poor fit]"
13,CSc1ncc(CN2CCN(CCC(C)C)C(CCO)C2)cn1 (configuration not stated),"inconclusive [activator, single point]"
14,Cc1noc(/C=C/N(C)C)c1S(=O)(=O)N1CCCC(C(=O)NC2CCCCC2)C1 (configuration not stated),"inconclusive [activator, single point]"
15,O=C(/C=C/c1ccccc1Cl)NC1CCS(=O)(=O)C1 (configuration not stated),"inconclusive [activator, single point]"
16,O=C(CSc1nc(-c2ccco2)cc(C(F)(F)F)n1)NCCc1ccccc1,"inconclusive [activator, single point]"
17,COc1ccc(CCC(C)NCc2ccc(Cl)c(Cl)c2)cc1 (configuration not stated),"inconclusive [activator, partial curve, poor fit]"
18,CCOc1ccccc1NC(=S)N1CCN(c2ccc(O)cc2)CC1,inactive
19,OCC1CCCN(C2CCN(Cc3nc(Cc4cccc(C(F)(F)F)c4)no3)CC2)C1 (configuration not stated),"inconclusive [activator, single point]"
20,O=C(COC(=O)CSc1ccc(F)cc1)NC1CCCCCC1,inactive
21,C=CCNC(=O)CC(=O)N/N=C/c1ccc(F)cc1,"inconclusive [activator, partial curve, poor fit]"
